Among the data in PubChem BioAssay (NCI) are GI50 and TGI values, retold here.

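Briefly, cells in 96-well plates were exposed to five compound concentrations for 48 h, and endpoints were estimated by linear interpolation. GI50: concentration for 50% inhibition of growth. The concentration for full growth arrest is given as TGI.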

The assay concerns NCI-H322M lung. Briefly: NCI anticancer screen, dose series, 48 h.
In the case of `COc1cc2nc(Cl)nc(Nc3cccc(C4=Nc5c(N)nc(N)nc5NC(c5ccc(F)cc5)C4)c3)c2cc1OC` (stereo unspecified), the GI50 is 2.14 µM and the TGI was found to be 5.57 µM.
The corresponding values for `N#Cc1nc(-c2ccccc2)oc1S(=O)(=O)N1CCN(CCc2ccccn2)CC1` are 23.2 µM and 79.2 µM.
The corresponding values for `Nc1ccccc1NC(=O)c1ccc(NC(=O)C/C=C/c2cccnc2)cc1` are 2.36 µM and over 50 µM.
